Source: PMC9911399, “Two distinct binding modes provide the RNA-binding protein RbFox with extraordinary sequence specificity”
Substitutions are numbered along the chain they refer to; changes in the protein carry UniProt numbers. Some of the results follow.

T1: RBFOX1 RRM RbFoxmut (Fox-RRM*) (Homo sapiens, UniProt Q9NWB1 109-208, R118D;E147R;N151S;E152T)
T1 sequence: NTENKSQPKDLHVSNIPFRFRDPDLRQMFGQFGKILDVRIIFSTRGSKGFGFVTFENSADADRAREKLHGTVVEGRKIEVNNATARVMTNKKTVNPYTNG

B1: CGUAGUA (DNA:RNA)
RNA: GGGAGACCGGAAUUCAGAUUGUCCCGUAGUAUUAAAUCCCGUCGUAGCCACCA
DNA 1: CAATCTGAATTCCGGTCTCCC
DNA 2: TGGTGGCTACGACGGGATT
B2: AUGGGCC (DNA:RNA)
RNA: B1 RNA with C25A, G26U, U27G, A28G, U30C, A31C
DNA 1: CAATCTGAATTCCGGTCTCCC
DNA 2: TGGTGGCTACGACGGGATT
B3: AAGCGGU (DNA:RNA)
RNA: B1 RNA with C25A, G26A, U27G, A28C, U30G, A31U
DNA 1: CAATCTGAATTCCGGTCTCCC
DNA 2: TGGTGGCTACGACGGGATT
B4: GGAGAGU (DNA:RNA)
RNA: B1 RNA with C25G, U27A, A28G, G29A, U30G, A31U
DNA 1: CAATCTGAATTCCGGTCTCCC
DNA 2: TGGTGGCTACGACGGGATT
B5: UCUGUUU (DNA:RNA)
RNA: B1 RNA with C25U, G26C, A28G, G29U, A31U
DNA 1: CAATCTGAATTCCGGTCTCCC
DNA 2: TGGTGGCTACGACGGGATT
B6: AAGACGG (DNA:RNA)
RNA: B1 RNA with C25A, G26A, U27G, G29C, U30G, A31G
DNA 1: CAATCTGAATTCCGGTCTCCC
DNA 2: TGGTGGCTACGACGGGATT
B7: AAUCAGA (DNA:RNA)
RNA: B1 RNA with C25A, G26A, A28C, G29A, U30G
DNA 1: CAATCTGAATTCCGGTCTCCC
DNA 2: TGGTGGCTACGACGGGATT
B8: AGUCGCC (DNA:RNA)
RNA: B1 RNA with C25A, A28C, U30C, A31C
DNA 1: CAATCTGAATTCCGGTCTCCC
DNA 2: TGGTGGCTACGACGGGATT
B9: UCCGACU (DNA:RNA)
RNA: GGGAGACCGGAAUUCAGAUUGUCCUCCGACUUUAAAUCCCGUCGUAGCCACCA
DNA 1: CAATCTGAATTCCGGTCTCCC
DNA 2: TGGTGGCTACGACGGGATT
B10: CGACUCC (DNA:RNA)
RNA: B1 RNA with U27A, A28C, G29U, U30C, A31C
DNA 1: CAATCTGAATTCCGGTCTCCC
DNA 2: TGGTGGCTACGACGGGATT
B11: UGUUCCA (DNA:RNA)
RNA: B1 RNA with C25U, A28U, G29C, U30C
DNA 1: CAATCTGAATTCCGGTCTCCC
DNA 2: TGGTGGCTACGACGGGATT
B12: CAGGGUA (DNA:RNA)
RNA: B1 RNA with G26A, U27G, A28G
DNA 1: CAATCTGAATTCCGGTCTCCC
DNA 2: TGGTGGCTACGACGGGATT
B13: AGCCGCC (DNA:RNA)
RNA: B1 RNA with C25A, U27C, A28C, U30C, A31C
DNA 1: CAATCTGAATTCCGGTCTCCC
DNA 2: TGGTGGCTACGACGGGATT
B14: CAAAUAA (DNA:RNA)
RNA: B1 RNA with G26A, U27A, G29U, U30A
DNA 1: CAATCTGAATTCCGGTCTCCC
DNA 2: TGGTGGCTACGACGGGATT
B15: GACCCUA (DNA:RNA)
RNA: B1 RNA with C25G, G26A, U27C, A28C, G29C
DNA 1: CAATCTGAATTCCGGTCTCCC
DNA 2: TGGTGGCTACGACGGGATT
B16: GGAUAUC (DNA:RNA)
RNA: B1 RNA with C25G, U27A, A28U, G29A, A31C
DNA 1: CAATCTGAATTCCGGTCTCCC
DNA 2: TGGTGGCTACGACGGGATT
B17: GCGACCU (DNA:RNA)
RNA: B9 RNA with U25G, C27G, G28A, A29C
DNA 1: CAATCTGAATTCCGGTCTCCC
DNA 2: TGGTGGCTACGACGGGATT
B18: AUCUAUC (DNA:RNA)
RNA: B9 RNA with U25A, C26U, G28U, C30U, U31C
DNA 1: CAATCTGAATTCCGGTCTCCC
DNA 2: TGGTGGCTACGACGGGATT
B19: UCGCCCU (DNA:RNA)
RNA: B9 RNA with C27G, G28C, A29C
DNA 1: CAATCTGAATTCCGGTCTCCC
DNA 2: TGGTGGCTACGACGGGATT
B20: CAGAUUU (DNA:RNA)
RNA: B1 RNA with G26A, U27G, G29U, A31U
DNA 1: CAATCTGAATTCCGGTCTCCC
DNA 2: TGGTGGCTACGACGGGATT
B21: UUGGAAA (DNA:RNA)
RNA: B9 RNA with C26U, C27G, C30A, U31A
DNA 1: CAATCTGAATTCCGGTCTCCC
DNA 2: TGGTGGCTACGACGGGATT
B22: GCAUAGU (DNA:RNA)
RNA: B9 RNA with U25G, C27A, G28U, C30G
DNA 1: CAATCTGAATTCCGGTCTCCC
DNA 2: TGGTGGCTACGACGGGATT
B23: AACAGGA (DNA:RNA)
RNA: B1 RNA with C25A, G26A, U27C, U30G
DNA 1: CAATCTGAATTCCGGTCTCCC
DNA 2: TGGTGGCTACGACGGGATT
B24: CUUGUCU (DNA:RNA)
RNA: B9 RNA with U25C, C26U, C27U, A29U
DNA 1: CAATCTGAATTCCGGTCTCCC
DNA 2: TGGTGGCTACGACGGGATT
B25: CGGACAG (DNA:RNA)
RNA: B1 RNA with U27G, G29C, U30A, A31G
DNA 1: CAATCTGAATTCCGGTCTCCC
DNA 2: TGGTGGCTACGACGGGATT
B26: CGAUCUC (DNA:RNA)
RNA: B1 RNA with U27A, A28U, G29C, A31C
DNA 1: CAATCTGAATTCCGGTCTCCC
DNA 2: TGGTGGCTACGACGGGATT
B27: CCUCGAU (DNA:RNA)
RNA: B1 RNA with G26C, A28C, U30A, A31U
DNA 1: CAATCTGAATTCCGGTCTCCC
DNA 2: TGGTGGCTACGACGGGATT
B28: AACGUGA (DNA:RNA)
RNA: B9 RNA with U25A, C26A, A29U, C30G, U31A
DNA 1: CAATCTGAATTCCGGTCTCCC
DNA 2: TGGTGGCTACGACGGGATT
B29: CGUACGA (DNA:RNA)
RNA: B1 RNA with G29C, U30G
DNA 1: CAATCTGAATTCCGGTCTCCC
DNA 2: TGGTGGCTACGACGGGATT
B30: CGGGUGU (DNA:RNA)
RNA: B1 RNA with U27G, A28G, G29U, U30G, A31U
DNA 1: CAATCTGAATTCCGGTCTCCC
DNA 2: TGGTGGCTACGACGGGATT
B31: CGGGGGA (DNA:RNA)
RNA: B1 RNA with U27G, A28G, U30G
DNA 1: CAATCTGAATTCCGGTCTCCC
DNA 2: TGGTGGCTACGACGGGATT

target: T1, RBFOX1 RRM RbFoxmut (Fox-RRM*); assay: EMSA; HiTS-Eq, 1 nM pool, 10 min; buffer printed only for the single-RNA assays: 10 mM Tris pH 7.5, 150 mM NaCl, 3.4 mM EDTA, 0.001% NP-40, 30 C; conditions: tags: His6 N-terminal (pET28a); label: 5' 32P
Summary of the method: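 Relative association constants, normalised to the cognate motif, were derived by comparing read counts of each RNA species with those of the control reaction. The RNA sequenced was the free fraction, separated by 8% native PAGE after a 10 min equilibration in 50 µL of 1 nM 5′-radiolabelled RNA (7 randomized nucleotides) with increasing concentrations of purified wild-type or mutant RbFox RRM.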

Binder	binding signal
B1	0.173 KA relative to UGCAUGU
B2	0.259 KA relative to UGCAUGU
B3	0.101 KA relative to UGCAUGU
B4	0.0935 KA relative to UGCAUGU
B5	0.0825 KA relative to UGCAUGU
B6	0.081 KA relative to UGCAUGU
B7	0.0398 KA relative to UGCAUGU
B8	0.0636 KA relative to UGCAUGU
B9	0.0598 KA relative to UGCAUGU
B10	0.0497 KA relative to UGCAUGU
B11	0.123 KA relative to UGCAUGU
B12	0.151 KA relative to UGCAUGU
B13	0.0809 KA relative to UGCAUGU
B14	0.121 KA relative to UGCAUGU
B15	0.0941 KA relative to UGCAUGU
B16	0.146 KA relative to UGCAUGU

Binder	binding signal
B17	0.0505 KA relative to UGCAUGU
B18	0.13 KA relative to UGCAUGU
B19	0.0819 KA relative to UGCAUGU
B20	0.101 KA relative to UGCAUGU
B21	0.0971 KA relative to UGCAUGU
B22	0.192 KA relative to UGCAUGU
B23	0.0817 KA relative to UGCAUGU
B24	0.0774 KA relative to UGCAUGU
B25	0.0568 KA relative to UGCAUGU
B26	0.0528 KA relative to UGCAUGU
B27	0.0769 KA relative to UGCAUGU
B28	0.0925 KA relative to UGCAUGU
B29	0.0683 KA relative to UGCAUGU
B30	0.159 KA relative to UGCAUGU
B31	0.0841 KA relative to UGCAUGU
